This is one part of the list.
B1: chr17:37088456:37088457:-_ENSMUSG00000036398_ENSMUST00000040402|mus_mus|FALSE|FALSE (ssRNA)
RNA: GGGAGUUCUACAGUCCGACGAUCGUAACCGUUGUCUCAGUGACGGUCUCACUUAUCCCGGCCCCUGUCUCCGCCAUGGCUAAAGCGAAAAGCGAGAAAGCGGGAUGAGACACCCUUUCCUUUUUCUGAGCCUCAGAGAUCUAACAACAGAGGAUUGAGCAUCA
B2: chr5:150025729:150025730:+_ENSMUSG00000041264_ENSMUST00000121416|mus_hu|FALSE|FALSE (ssRNA)
RNA: GGGAGUUCUACAGUCCGACGAUCCACAAAUGGCUUCUUCUGAUUUUCUUUCAGAGACUGAUUCUGUAAUGACUUAGAUGUUGUGGUUUGAGAAUCUGCUGUAGUUUCUUUUUUCUUCAAAUUAGAUACCUGAGAUGUGACACGCAACAGAGGAUUGAGCAUCA
B3: chr9:96327448:96327449:+_ENSG00000048828_ENST00000277165|hu_hu|FALSE|FALSE (ssRNA)
RNA: GGGAGUUCUACAGUCCGACGAUCAGUCACGAAAGUUUCAGAACACAUUGUGUUGAUUUUGAAAGGUCAUUUGCAUCUUCUAUGAUUUCAACUUUAUCUCCAUUUAACUUGCUUGUAAAGUAUGUAUGAUGUAUUGUAUAUUUACAACAGAGGAUUGAGCAUCA
B4: chrM:8634:8635:+_ENSG00000198899_ENST00000361899|hu_hu|FALSE|FALSE (ssRNA)
RNA: GGGAGUUCUACAGUCCGACGAUCUUUGAGGUUAGUUUGAUUAGUCAUUGUUGGGUGGUGAUUAGUCGGUUGUUGAUGAGAUAUUUGGAGGUGGGGAUCAAUAGAGGGGGAAAUAGAAUGAUCAGUACUGCGGCGGGUAGGCCUCAACAGAGGAUUGAGCAUCA
B5: 52289467_52289587_540_CDS_ENSMUSG00000026103_ENSMUST00000114513|mouse|control|control (ssRNA)
RNA: GGGAGUUCUACAGUCCGACGAUCGCUGUUGCCGAACGCGUCGGUCUCCCCCGGGCUGUCCUUGGGGCCCGGGGCUGCGGGUGGCGACGCCCCUGGCUGCUGCUGCUGCUGCUGCUGCUGCUGUGGCGGCGUACCCCCCUUCCCCAACAGAGGAUUGAGCAUCA
B6: chr7:7679991:7679992:-_ENSG00000106399_ENST00000396682|hu_hu|hu_hu_hu_mus_False|8_78 (ssRNA)
RNA: GGGAGUUCUACAGUCCGACGAUCUGGGAUGAAUCUUUUCCAGCUUCCCCACGAAGCAGACAGGCUUGUCGAUAUACUGUGGUAACAUGCUGGCGUUGACGCGCGCUUUGGGGAGCUGCAUUAUGUCCACCAUGAUUCUGCCGCCAACAGAGGAUUGAGCAUCA
B7: 122489335_122512930_691_3pUTR_ENSMUSG00000034602_ENSMUST00000073792|mouse|control|control (ssRNA)
RNA: GGGAGUUCUACAGUCCGACGAUCGCUGCACGACCUCUGAGCUGUUCUCUUUCAAUGCUGCCAAAAUUUCCGUGUUUCUUGCAGCUAUUGUUUUAACUUUUAUUAUUCCCGAUUCAGCAGCCUCCUUGACAGGUGGGAACUUCUCAACAGAGGAUUGAGCAUCA
B8: chr1:225611761:225611762:-_ENSG00000143815_ENST00000272163|hu_mus|hu_hu_hu_mus_True|28_78 (ssRNA)
RNA: GGGAGUUCUACAGUCCGACGAUCCCAGGCCAUCGGCCUCUGACCACUUCACCCUCAGCAAAUUUCCUACUUGGCAUUUUCUAAAAUUAGUCUGGCCGCGCUCCGGCCGGUGACACGGCCACUCCAGGACAGUCACCAGCAGCCCAACAGAGGAUUGAGCAUCA
B9: chr6:146524949:146524950:-_ENSMUSG00000040250_ENSMUST00000032427|mus_hu|FALSE|FALSE (ssRNA)
RNA: GGGAGUUCUACAGUCCGACGAUCCUGCCUGCAAGAUUCUGCCAUAUAAGGGCAGUGAUCCACAACAAACACUGUUUUAUGAGAUUCAGAAAAAAUCUUCAUUUUGUUUUAACUUUCGUGCCUGGUCCUGCAGUGAAAACGAACCAACAGAGGAUUGAGCAUCA
B10: chr20:32439910:32439911:+_ENSG00000101421_ENST00000217402|hu_mus|FALSE|FALSE (ssRNA)
RNA: GGGAGUUCUACAGUCCGACGAUCAGGGACUGUUUCGGGCCCACUGAUCUCCAACAAAUUCUUGUCCAACUCCUCUUGUUCAAGUUCCUCCAACUCUGCCAUGAGCUCAUCCUCGUCGAACUCUUCUCCAAAGCCCACAGGUUUCAACAGAGGAUUGAGCAUCA
B11: chr7:135612270:135612271:-_ENSG00000105887_ENST00000393085|hu_mus|hu_hu_hu_mus_False|48_58 (ssRNA)
RNA: GGGAGUUCUACAGUCCGACGAUCGUUUUUUUCUGAGAUGUUAAAUAGUACUUCAGUGGAAAACAAAACUUAACCUUUCGCUAAUGCAUGUAGUACCAAAAGCAGACAUUUUAGCUUCAUUUAUUCAAAAAUAUUAACAUUAAGCAACAGAGGAUUGAGCAUCA
B12: chr13:14146135:14146136:-_ENSMUSG00000021302_ENSMUST00000170957|mus_mus|FALSE|FALSE (ssRNA)
RNA: GGGAGUUCUACAGUCCGACGAUCAGUGUAUGCAAAAGAACCUACAUCCUCCAGGUACUGCACACAAUACUUUUUAAUAUCUAUAUUCUCUGUUCUCUGGCGCAGGAUGUUCUGUACCUGGGUGCUUUCUGGCCUUGACCAAAUCAACAGAGGAUUGAGCAUCA
B13: chrX:69798090:69798091:-_ENSMUSG00000031343_ENSMUST00000055966|mus_mus|mus_mus_mus_hu_False|38_108 (ssRNA)
RNA: GGGAGUUCUACAGUCCGACGAUCAAGUCCCCAGGUUCUUGUCGUCUUGAUUCCCCUUGACCAGUGGUUCCAGGGAGAAUAUUAAUCAGGAAAAGAAGUACAACUCUGGUCAUGUAACAGUGACUUGUUUGUGUGAUUAUCAUCCAACAGAGGAUUGAGCAUCA
B14: chr5:93704372:93704373:+_ENSMUSG00000029385_ENSMUST00000031331|mus_hu|FALSE|FALSE (ssRNA)
RNA: GGGAGUUCUACAGUCCGACGAUCAACCAUUAAGGAUUAUCCACUGUCCCUGCUAAGGAAGCACUUGCAUACUUCCAAUCUGCUUAAAGACAUCUGAAGGUUUUAUAAAAUGUUUAAGAUAAGCUACACUAGUUAUUUUUAAAACAACAGAGGAUUGAGCAUCA
B15: chr15:95746395:95746396:+_ENSMUSG00000064210_ENSMUST00000071874|mus_mus|FALSE|FALSE (ssRNA)
RNA: GGGAGUUCUACAGUCCGACGAUCCCAUUCUCUGUACAGGAGGUAACGCUCGCUAGGACAACUGAUGUCCUCCGACUCAUAGUUGAAUCUGCAGUCGUGCAGAGGAAACGCUGCUUUGUAGAUUCCAGAGCUGACCAGUCUAUUCAACAGAGGAUUGAGCAUCA
B16: chr11:105967523:105967524:+_ENSG00000149313_ENST00000278618|hu_hu|FALSE|FALSE (ssRNA)
RNA: GGGAGUUCUACAGUCCGACGAUCCCAAAAUGAAGGAUCUUCAGGUGUCAUGGGAACGGCAGAUGACAUUAAAUCAUUAAAGUUGAGAAUAGUAAAUUGCCUCUGGGUUGGUUUGGAAUCAUCCUGAGAUGGAACAUCCUGAUGCAACAGAGGAUUGAGCAUCA
B17: chr1:66480114:66480115:+_ENSMUSG00000015222_ENSMUST00000024639|mus_hu|mus_mus_mus_hu_True|28_98 (ssRNA)
RNA: GGGAGUUCUACAGUCCGACGAUCUGGCCUGUGGCGGAUGUUCUUUAGAGAGCCACAUUUGGAUGUCACAUGGCUUAGGUCUAUUUUCUUGGUAACAAUUUGUACCUGACCCCCCUUAGGCUGGUAUUUGAUGUUGUCUGUUGACAACAGAGGAUUGAGCAUCA
B18: chr4:175158712:175158713:-_ENSG00000164117_ENST00000503293|hu_mus|FALSE|FALSE (ssRNA)
RNA: GGGAGUUCUACAGUCCGACGAUCACGGCGCGUAUUUCGAAUAAACUCUCUUUUUGACAUUUUAUUCUUCACAUGAGGACUAGUGAGGUCAAUGGAAAGUAGAAUCAAAGAGUAGCACAGUACAUAGACAGCAUCAGGACUAAGCAACAGAGGAUUGAGCAUCA
B19: chr14:76904568:76904569:+_ENSMUSG00000022010_ENSMUST00000022587|mus_hu|motif|central (ssRNA)
RNA: GGGAGUUCUACAGUCCGACGAUCGUUUUCAGUCCCCAGCAAGGAUGACAAGAAAGAAAUUGAAAAAUGUCUCAGUUGGUAAACUCCGGGAUCCAUCGCCACUGGUCUACACCAUUGGGAUUUCAUGCAAUUGCAGCCAAAAACCAACAGAGGAUUGAGCAUCA
B20: chrX:154448470:154448471:+_ENSG00000155959_ENST00000286428|hu_mus|FALSE|FALSE (ssRNA)
RNA: GGGAGUUCUACAGUCCGACGAUCAUCCAGCUUCUUUAACACUGUAUCUGCAGUCUCAUUCCCAGGCUGCUUCAUGAAAGAAUCUACAUCUUCCACAAACACUGCUUCAGGAAUCCCUAAGUGGAGCCGCCGCCCGUUUCCAGCCAACAGAGGAUUGAGCAUCA
B21: chr6:31458560:31458561:+_ENSMUSG00000025609_ENSMUST00000026699|mus_mus|FALSE|FALSE (ssRNA)
RNA: GGGAGUUCUACAGUCCGACGAUCUCAGAGGAGAGUGAGAGCGUAGGUUCUGCAUAGCUCUACCAGCAGUCAUUUCCUUUAAAAUCCCAACAGAGAUAUCAGUAAAAAUAGGGGGAAGGACAGCACCUCUCCUGCUGGUCACCUCAACAGAGGAUUGAGCAUCA
B22: chr17:61432403:61432404:+_ENSG00000170921_ENST00000424789|hu_hu|motif|central (ssRNA)
RNA: GGGAGUUCUACAGUCCGACGAUCCUUCAUAUUGCACUGGAGUAAAUAAACCUCUGAGAGCGAAACAGGAACUACUUUGUAGCGGGAGCUCUUUAACACUAGAUAGCCUUUCUCUAUGAGGUCAAAUGUAAGUUUCAGAUAUAGCAACAGAGGAUUGAGCAUCA

Target: T1, UNK ZnF1-3 (human, UniProt Q9C0B0 31-174)
T1 sequence: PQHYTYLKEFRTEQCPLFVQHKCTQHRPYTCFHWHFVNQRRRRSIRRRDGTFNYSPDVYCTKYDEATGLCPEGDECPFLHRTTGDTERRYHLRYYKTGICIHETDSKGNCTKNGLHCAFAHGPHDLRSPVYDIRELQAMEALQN
Assay: nsRBNS (natural sequence RNA bind-n-seq); RBNS binding buffer (assumed for nsRBNS): 25 mM Tris pH 7.5, 150 mM KCl, 3 mM MgCl2, 0.01% Triton X-100, 500 ug/ml BSA, 20 U/ml SUPERase-In, 4 C; UNK is unkempt and MSI1 is Musashi-1; names of the RNAs are library labels; protein concentration not given here; high values mean tight binding

| Binder | binding signal |
| --- | --- |
| B1 | 0.924 enrichment R |
| B2 | 0.895 enrichment R |
| B3 | 0.427 enrichment R |
| B4 | 1.23 enrichment R |
| B5 | 0.436 enrichment R |
| B6 | 0.617 enrichment R |
| B7 | 0.62 enrichment R |
| B8 | 1.01 enrichment R |
| B9 | 1.02 enrichment R |
| B10 | 0.87 enrichment R |
| B11 | 0.777 enrichment R |
| B12 | 0.969 enrichment R |
| B13 | 0.745 enrichment R |
| B14 | 1.11 enrichment R |
| B15 | 0.845 enrichment R |
| B16 | 1.47 enrichment R |
| B17 | 0.601 enrichment R |
| B18 | 1.41 enrichment R |
| B19 | 1.57 enrichment R |
| B20 | 0.785 enrichment R |
| B21 | 2.16 enrichment R |
| B22 | 1.37 enrichment R |
